The other results are listed elsewhere or left out. Repeats are few or missing, and single values can be far off.
What was measured:
Assay in all cases: cell count relative to DMSO control; melanoma cells; higher = more viable cells
Details in all cases: library dose: standard library concentration; 72 h
G361 = tested on: G361
IPC-298 = tested on: IPC-298
IST-MEL1 = tested on: IST-MEL1
LB2518-MEL = tested on: LB2518-MEL
LOXIMVI = tested on: LOXIMVI
MEL-HO = tested on: MEL-HO
MZ2-MEL = tested on: MZ2-MEL
MeWo = tested on: MeWo
RPMI7951 = tested on: RPMI7951
RVH-421 = tested on: RVH-421
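Note: cells treated in 1,536-well plates, then fixed and DAPI-stained, with nuclei counted from automated high-throughput microscope images.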

SMILES	cell count (G361) [%]	cell count (IPC-298) [%]	cell count (IST-MEL1) [%]	cell count (LB2518-MEL) [%]	cell count (LOXIMVI) [%]	cell count (MEL-HO) [%]	cell count (MZ2-MEL) [%]	cell count (MeWo) [%]	cell count (RPMI7951) [%]	cell count (RVH-421) [%]
COc1cc([C@@H]2c3cc4c(cc3[C@@H](O[C@@H]3O[C@@H]5CO[C@@H](C)O[C@H]5[C@H](O)[C@H]3O)[C@H]3COC(=O)[C@H]23)OCO4)cc(OC)c1O [etoposide] + Nc1ccn([C@@H]2O[C@H](CO)[C@@H](O)C2(F)F)c(=O)n1 [gemcitabine] (first compound 0.1 µM, partner dose 0.002 µM)	50.8	32.4	41.9	58.9	68	64.6	65.5	48.8	59.6	51.7
C[C@]1(O)C[C@@H](c2nc(-c3ccc4ccc(-c5ccccc5)nc4c3)c3c(N)nccn32)C1 + C=CCn1c(=O)c2cnc(Nc3ccc(N4CCN(C)CC4)cc3)nc2n1-c1cccc(C(C)(C)O)n1 [MK1775] (first compound 2 µM, partner dose 0.1 µM)	67.9	71.6	81.8	55	76.6	92.9	103	60.6	82.4	94.8
C[C@]1(O)C[C@@H](c2nc(-c3ccc4ccc(-c5ccccc5)nc4c3)c3c(N)nccn32)C1 + NC(=O)Nc1cc(-c2cccc(F)c2)sc1C(=O)N[C@H]1CCCNC1 [AZD7762] (first compound 2 µM, partner dose 0.1 µM)	79.2	100	84.5	53.6	53.2	76.4	107	71.1	41.9	149
C[C@]1(O)C[C@@H](c2nc(-c3ccc4ccc(-c5ccccc5)nc4c3)c3c(N)nccn32)C1 + O=c1cc(-c2cccc3c2Sc2ccccc2S3)oc(N2CCOCC2)c1 [KU55933] (first compound 2 µM, partner dose 5 µM)	69.1	75.7	91.1	72.7	90.4	81.1	102	64.8	66	109
Cn1cnc2c(F)c(Nc3ccc(Br)cc3Cl)c(C(=O)NOCCO)cc21 [selumetinib] + Nc1nc(F)nc2c1ncn2[C@@H]1O[C@H](CO)[C@@H](O)[C@@H]1O [fludarabine] (first compound 0.075 µM, partner dose 1 µM)	80	53	78.1	53.2	119	73.3	87.9	79.6	52.7	96.5
COc1cc([C@@H]2c3cc4c(cc3[C@@H](O[C@@H]3O[C@@H]5CO[C@@H](C)O[C@H]5[C@H](O)[C@H]3O)[C@H]3COC(=O)[C@H]23)OCO4)cc(OC)c1O [etoposide] + CN1CCN(c2ccc3nc(-c4c(N)c5c(F)cccc5[nH]c4=O)[nH]c3c2)CC1 [Dovitinib] (first compound 0.1 µM, partner dose 0.5 µM)	44.6	48.2	66.3	49.1	81.5	65.1	30.6	37.8	74.9	61.3
COc1cc([C@@H]2c3cc4c(cc3[C@@H](O[C@@H]3O[C@@H]5CO[C@@H](C)O[C@H]5[C@H](O)[C@H]3O)[C@H]3COC(=O)[C@H]23)OCO4)cc(OC)c1O [etoposide] + COc1cc2ncnc(Nc3ccc(Oc4ccccc4)cc3)c2cc1OC [SrcI1] (first compound 0.1 µM, partner dose 10 µM)	58.4	55.3	78.2	90	71.5	82.3	74.9	70.9	28.1	107
C[C@]1(O)C[C@@H](c2nc(-c3ccc4ccc(-c5ccccc5)nc4c3)c3c(N)nccn32)C1 + Cn1nnc2c(C(N)=O)ncn2c1=O [temozolomide] (first compound 2 µM, partner dose 10 µM)	88.1	96	83.5	91.7	63.9	107	108	85.6	65.1	120
COc1cc([C@@H]2c3cc4c(cc3[C@@H](O[C@@H]3O[C@@H]5CO[C@@H](C)O[C@H]5[C@H](O)[C@H]3O)[C@H]3COC(=O)[C@H]23)OCO4)cc(OC)c1O [etoposide] + O=C(O)C(=O)Nc1sc2c(c1C(=O)O)CCNC2 [TCS401] (first compound 0.1 µM, partner dose 8.33333 µM)	91.2	75.5	88	82.8	92.4	83.3	80.9	72.9	88.1	90.7
COc1cc([C@@H]2c3cc4c(cc3[C@@H](O[C@@H]3O[C@@H]5CO[C@@H](C)O[C@H]5[C@H](O)[C@H]3O)[C@H]3COC(=O)[C@H]23)OCO4)cc(OC)c1O [etoposide] + OCc1c[nH]c2ccccc12 [Indole-3-carbinol] (first compound 0.1 µM, partner dose 4 µM)	99.1	72.1	106	88	97.2	95.3	69.3	104	104	101
CCN(CC)CCNC(=O)c1c(C)[nH]c(/C=C2\C(=O)Nc3ccc(F)cc32)c1C [sunitinib] + O=S(=O)(c1ccccc1)N(CC(F)(F)F)c1ccc(C(O)(C(F)(F)F)C(F)(F)F)cc1 [T0901317] (first compound 2 µM, partner dose 7 µM)	66.9	62.1	94.1	71.3	100	88.2	97.8	55	80.6	124
CCN(CC)CCNC(=O)c1c(C)[nH]c(/C=C2\C(=O)Nc3ccc(F)cc32)c1C [sunitinib] + C=C(c1ccc(C(=O)O)cc1)c1cc2c(cc1C)C(C)(C)CCC2(C)C [Bexarotene] (first compound 2 µM, partner dose 10 µM)	98.2	74.2	101	90.1	205	116	116	74.2	79.2	155
CCN(CC)CCNC(=O)c1c(C)[nH]c(/C=C2\C(=O)Nc3ccc(F)cc32)c1C [sunitinib] + c1cc(-c2cnn3cc(-c4ccc(OCCN5CCCCC5)cc4)cnc23)ccn1 [Dorsomorphin] (first compound 2 µM, partner dose 2 µM)	50	68.6	102	74.5	86.5	77.3	84.8	53.8	64.2	83
COc1cc([C@@H]2c3cc4c(cc3[C@@H](O[C@@H]3O[C@@H]5CO[C@@H](C)O[C@H]5[C@H](O)[C@H]3O)[C@H]3COC(=O)[C@H]23)OCO4)cc(OC)c1O [etoposide] + C=CCNC1=C2C[C@@H](C)C[C@H](OC)[C@H](O)[C@@H](C)/C=C(\C)[C@H](OC(N)=O)[C@@H](OC)/C=C\C=C(/C)C(=O)NC(=CC1=O)C2=O [Tanespimycin] (first compound 0.1 µM, partner dose 0.01 µM)	73.3	70.4	68.5	107	130	86.7	73.5	76.8	33.5	77.4
COc1cc([C@@H]2c3cc4c(cc3[C@@H](O[C@@H]3O[C@@H]5CO[C@@H](C)O[C@H]5[C@H](O)[C@H]3O)[C@H]3COC(=O)[C@H]23)OCO4)cc(OC)c1O [etoposide] + COc1ccc(C2=N[C@@H](c3ccc(Cl)cc3)[C@@H](c3ccc(Cl)cc3)N2C(=O)N2CCNC(=O)C2)c(OC(C)C)c1 [Nutlin-3] (first compound 0.1 µM, partner dose 0.5 µM)	83.5	76.2	113	73.7	46.2	90	65.3	100	106	53.5
Cn1cnc2c(F)c(Nc3ccc(Br)cc3Cl)c(C(=O)NOCCO)cc21 [selumetinib] + CCc1ccc(CCOc2ccc(CC3SC(=O)NC3=O)cc2)nc1 [pioglitazone] (first compound 0.075 µM, partner dose 10 µM)	67.8	49.6	77.1	48.7	118	74.6	67.5	63.6	129	62.2
Cn1cnc2c(F)c(Nc3ccc(Br)cc3Cl)c(C(=O)NOCCO)cc21 [selumetinib] + COc1ccc2c(c1)CCC1C2CCC2(C)C(NCCCCCCN3C(=O)C=CC3=O)CCC12 [U73122] (first compound 0.075 µM, partner dose 2 µM)	65.5	77.8	88.7	55.8	69.2	85.2	91.8	23.5	33.3	68.4
COc1cc([C@@H]2c3cc4c(cc3[C@@H](O[C@@H]3O[C@@H]5CO[C@@H](C)O[C@H]5[C@H](O)[C@H]3O)[C@H]3COC(=O)[C@H]23)OCO4)cc(OC)c1O [etoposide] + c1cc(-c2cnn3cc(-c4ccc(OCCN5CCCCC5)cc4)cnc23)ccn1 [Dorsomorphin] (first compound 0.1 µM, partner dose 2 µM)	60.1	67.5	85.7	60.3	109	85.1	56.4	76.4	77.7	95.3
CCN(CC)CCNC(=O)c1c(C)[nH]c(/C=C2\C(=O)Nc3ccc(F)cc32)c1C [sunitinib] + Nc1nc(F)nc2c1ncn2[C@@H]1O[C@H](CO)[C@@H](O)[C@@H]1O [fludarabine] (first compound 2 µM, partner dose 1 µM)	68	49.5	75.2	59.4	149	65.3	74	75.2	74.9	103
CCN(CC)CCNC(=O)c1c(C)[nH]c(/C=C2\C(=O)Nc3ccc(F)cc32)c1C [sunitinib] + CCCCCCCCc1ccc(CCC(N)(CO)CO)cc1 [fingolimod] (first compound 2 µM, partner dose 10 µM)	1.38	17.2	12	0.298	22.6	3.01	1.42	16.7	2.8	10.3
